The record followed here is ChEMBL document CHEMBL4888484, “Replenishing the malaria drug discovery pipeline: Screening and hit evaluation of the MMV Hit Generation Library 1 (HGL1) against asexual blood stage Plasmodium falciparum ,using a nano luciferase reporter read-out” (2022).

In all, about 150,000 compounds went through this assay and about 540 (0.36%) showed an effect of 50% or more. The list shows a part of the results.

The subject of this assay is Plasmodium falciparum. Kind of assay: Primary screen in NF54 nanoGlo assay, in single point, at 2uM, 72h; a lower Z score goes with more inhibition. Type of assay: functional, Erythrocyte. The conditions noted are these: timepoint 72 hour.
The term % Inhibition denotes the relative decrease from the control value, in per cent. With `CC(C)n1ncc2c(C(N)=O)cc(-c3ccc4c(c3)OCCO4)nc21`, the “% Inhibition” value is -9% and the Z score is recorded as 1.31.
The matching figures for `CNC(=O)[C@@H](C)CN(C)c1ccncc1F`: -5% and 0.72.
Take `O=C(NC1CCN(c2nnc3ccc(Cl)cn23)CC1)c1cccnc1`: the “% Inhibition” value is 32% and the Z score is reported as -3.62.
For `Brc1ccc2c(c1)C1(CCCC1)CN2`, the “% Inhibition” value was -14% and the Z score was determined as 1.96.
Consider `Cn1c(C[C@H]2CN(C(=O)c3ccc(Cl)cc3)CC[C@H]2CC(=O)O)nc2ccccc21`, for which the “% Inhibition” value is given as -3% and the Z score turned out to be 0.44.
The like results for `CN(CCN(C)S(=O)(=O)c1c(Cl)cccc1Cl)C1CCCCC1` were, in that order, -3% and 0.34.
The like results for `Cc1nnc(CCNC(=O)N2CC[C@H](C(=O)N3CCCC3)C2)s1` were, in that order, -15% and 1.61.
The matching figures for `Cc1ccccc1NC(=O)c1n(O)c2ccccc2[n+]1[O-]`: -13% and 1.64.
With `CCOC[C@H]1CCN(C(=O)Nc2cnc(C)cn2)C1`, the “% Inhibition” value stood at 32% and the Z score was -3.64.
The like results for `Cc1c(C(=O)N(C)[C@@H](C)c2cccc(-c3ccncc3)c2)nnn1-c1ccc(F)cc1` were, in that order, -3% and 0.35.
As for `CC[C@]1(N2CCN(C(=O)CCc3c[nH]c4ccccc34)CC2)CCN(S(C)(=O)=O)C1`, the “% Inhibition” value is -4% and the Z score is recorded as 0.38.
The like results for `CC[C@@H](C(=O)O)N(C)C(=O)c1cccc(C)c1Cl` were, in that order, -11% and 1.46.
As for `COC[C@H]1CCCN(S(=O)(=O)NCC2(N3CCCCC3)CCCC2)C1`, the “% Inhibition” value is -1% and the Z score came to 0.16.
With `O=C(Nc1ccccc1)C1Cc2cc(C(F)(F)F)ccc2N2CCN(C3CCCC3)CC12` (centres undefined), the “% Inhibition” value is given as -9% and the Z score is on record as 1.5.
The matching figures for `CC1CCC(NC(=O)CS(=O)(=O)C2CCCC2)C(C)C1` (centres undefined): -8% and 1.23.
The like results for `CC(C)[C@H]1CCO[C@H]1C(=O)NCCN1CC2CCC(C1)O2` were, in that order, -3% and 0.61.
Consider `CCCN1CCN(C(=O)CCc2n[nH]c(C)c2C)[C@H]2CS(=O)(=O)C[C@H]21`, for which the “% Inhibition” value was -13% and the Z score was determined as 2.1.
With `Cc1ccc(NC2(C(=O)NCCN(C)S(C)(=O)=O)CCCC2)cc1`, the “% Inhibition” value is recorded as -12% and the Z score amounted to 1.16.
The matching figures for `CCN1C[C@H](CN(C)C(=O)c2cnn(C)c2C)Oc2ccccc21`: 10% and -1.28.
On to `CC(=O)Nc1ccnn1CC1=CCCN([C@@H](C)C(=O)N2CCCC2)C1`, for which the “% Inhibition” value is given as -7% and the Z score is recorded as 1.16.
The matching figures for `CC(=O)N1CCc2cc(N[C@@H](C)C(=O)N3CCCCCC3)ccc21`: 1% and -0.16.
In the case of `CCOC(=O)c1nc2ccccc2nc1N1CCC2(C1)OCCO2`, the “% Inhibition” value is -3% and the Z score is 0.56.
The matching figures for `CCc1ncc(CNC(=O)c2cn(CC)nn2)o1`: -11% and 1.51.
For `O=C(N[C@@H](Cc1ccccc1)C(=O)NC1CCCNC1=O)OCc1ccccc1` (some centres undefined), the “% Inhibition” value is reported as -4% and the Z score stood at 0.76.
As to `COc1cc([C@H]2C(=O)N(C3CCCCCC3)CC(=O)N2C2CC2)ccc1OC(C)C`, the “% Inhibition” value amounted to 6% and the Z score is recorded as -1.08.
The matching figures for `Cc1ccc(NC(=O)CCc2c(C)nn(-c3cc(N4CCOCC4)ncn3)c2C)c(Cl)c1`: -8% and 1.67.
The matching figures for `C[C@H]1C(=O)NCCCN1C(=O)c1cc(C2CC2)on1`: -2% and 0.27.
On to `CCOC(=O)c1cc(CN2CCS(=O)(=O)[C@@H](C)C2)[nH]c1C`, for which the “% Inhibition” value worked out at 4% and the Z score is recorded as -0.53.
Take `Cc1cc(C(=O)NCc2nnc3n2CCOC3)oc1Br`: the “% Inhibition” value was -6% and the Z score is recorded as 0.84.
For `CC(C)(C)CN1C[C@]23C=C[C@H](O2)C(C(=O)N2CCS(=O)(=O)CC2)C3C1=O` (some centres undefined), the “% Inhibition” value is reported as -2% and the Z score is recorded as 0.31.
`CCNc1ncc(C(=O)NCCOc2ccc(CC#N)cc2)s1`: the “% Inhibition” value is recorded as -1% and the Z score is on record as 0.14.
The matching figures for `Cc1cccc(NC(=O)N2CCCCC[C@H]2c2nc(-c3ccccc3)no2)c1`: -2% and 0.44.
The like results for `CN=C(NCc1noc(C)n1)N(C)Cc1cnn(-c2ccccc2)c1` were, in that order, 7% and -1.13.
As for `O=C(c1cc(-c2ccc(Cl)s2)nc2ccccc12)n1nnc2ccccc21`, the “% Inhibition” value is recorded as -7% and the Z score is on record as 0.94.
In the case of `N#Cc1cccc(-c2ccc3ncnc(NCCO)c3c2)c1`, the “% Inhibition” value was -2% and the Z score was 0.21.
The matching figures for `COc1ccc(CN2CCN(c3cccc4c3C(=O)N(C[C@H]3CCCO3)C4=O)CC2)c(OC)c1C`: 5% and -0.6.
The matching figures for `CC1CCN(C(=O)c2ccc(-c3ccc(N4CCCC4)nn3)cc2)CC1`: -9% and 1.34.
In the case of `CN1CCN(Cc2ccccc2OCCO)C[C@H]1c1ccccc1`, the “% Inhibition” value is -13% and the Z score turned out to be 1.98.
The like results for `Cc1ccccc1NS(=O)(=O)c1ccc(-c2[nH]ncc2C(=O)N(C)C)o1` were, in that order, -4% and 0.44.
The matching figures for `O=C(CCc1cccc2ccccc12)Nc1cccnc1`: -6% and 1.11.
The matching figures for `COc1ccc(C(=O)N[C@H](c2nnc3n2CCNCC3)C(C)C)cc1`: 11% and -1.94.
As to `NS(=O)(=O)c1ccc(F)c(-n2nc(CC3CC3)nc2-c2cnccn2)c1`, the “% Inhibition” value is given as 1% and the Z score is reported as -0.12.
